This passage reports binding results from paper PMC5436638.

The chains behind the UniProt entries cited, without tags or fusion partners. Where a name states a change or a piece, a line headed by the entry shows the natural chain unless it says otherwise. A line that says so, or that is headed by a name, gives the form on record, which may keep a tag or linker. Residues count along the entry.
UniProt O75533: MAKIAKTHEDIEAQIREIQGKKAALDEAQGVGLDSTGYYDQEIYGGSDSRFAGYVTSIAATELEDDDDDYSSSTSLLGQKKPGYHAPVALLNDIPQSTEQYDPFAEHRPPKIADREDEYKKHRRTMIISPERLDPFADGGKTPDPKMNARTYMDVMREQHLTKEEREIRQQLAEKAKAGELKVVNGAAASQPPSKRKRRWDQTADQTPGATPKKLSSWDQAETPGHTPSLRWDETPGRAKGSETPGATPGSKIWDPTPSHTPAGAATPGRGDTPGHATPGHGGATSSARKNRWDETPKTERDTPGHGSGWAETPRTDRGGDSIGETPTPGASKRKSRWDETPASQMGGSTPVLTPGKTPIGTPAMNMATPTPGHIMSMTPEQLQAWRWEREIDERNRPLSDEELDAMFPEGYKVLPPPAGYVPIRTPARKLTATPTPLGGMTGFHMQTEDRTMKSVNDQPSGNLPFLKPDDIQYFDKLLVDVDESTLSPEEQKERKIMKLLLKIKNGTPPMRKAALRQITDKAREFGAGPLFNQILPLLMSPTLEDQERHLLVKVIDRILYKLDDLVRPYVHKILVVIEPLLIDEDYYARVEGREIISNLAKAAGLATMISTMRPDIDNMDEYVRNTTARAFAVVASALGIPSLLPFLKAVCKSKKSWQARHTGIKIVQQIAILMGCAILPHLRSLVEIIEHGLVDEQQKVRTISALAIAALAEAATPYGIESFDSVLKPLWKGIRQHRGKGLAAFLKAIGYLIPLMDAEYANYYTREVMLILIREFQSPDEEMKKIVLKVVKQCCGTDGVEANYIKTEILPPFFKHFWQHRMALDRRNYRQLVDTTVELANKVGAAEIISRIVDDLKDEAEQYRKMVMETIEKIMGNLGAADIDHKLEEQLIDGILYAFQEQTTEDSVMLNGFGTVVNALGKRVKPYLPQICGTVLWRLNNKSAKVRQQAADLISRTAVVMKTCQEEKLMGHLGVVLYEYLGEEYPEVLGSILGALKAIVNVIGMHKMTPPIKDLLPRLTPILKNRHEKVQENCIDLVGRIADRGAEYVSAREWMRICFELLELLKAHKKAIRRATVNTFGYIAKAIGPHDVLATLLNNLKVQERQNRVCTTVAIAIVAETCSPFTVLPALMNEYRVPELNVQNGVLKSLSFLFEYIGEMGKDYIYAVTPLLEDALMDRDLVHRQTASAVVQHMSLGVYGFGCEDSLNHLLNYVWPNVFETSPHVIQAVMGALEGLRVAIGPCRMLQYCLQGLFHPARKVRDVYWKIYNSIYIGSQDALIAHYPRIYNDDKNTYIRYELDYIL
UniProt P17542: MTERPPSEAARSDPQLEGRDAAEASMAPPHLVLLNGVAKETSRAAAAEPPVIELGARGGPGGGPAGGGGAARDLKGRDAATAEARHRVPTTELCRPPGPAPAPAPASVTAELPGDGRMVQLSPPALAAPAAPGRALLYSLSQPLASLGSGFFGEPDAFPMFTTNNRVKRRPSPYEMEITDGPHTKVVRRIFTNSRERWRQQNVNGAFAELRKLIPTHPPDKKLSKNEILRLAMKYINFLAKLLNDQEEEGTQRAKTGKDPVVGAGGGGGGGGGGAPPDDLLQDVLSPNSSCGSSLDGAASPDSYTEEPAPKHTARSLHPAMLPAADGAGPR
Flag-tagged TAL1 short form (TAL1s), stable K562 line: residues 176-331 of P17542

Experiment [1] has as its target Flag-tagged splicing factor 3b subunit 1 (SF3B1) K700E mutant (human) (UniProt O75533). Put plainly: co-IP; Flag-tagged SF3B1 wild type or K700E overexpressed in K562 cells; immunoprecipitation with Flag antibody, RBM15 detected by western blot with anti-RBM15 antibody. A general note: In western blotting, separated proteins are transferred to a membrane and probed.

The target in experiment [2] is Flag-tagged splicing factor 3b subunit 1 (SF3B1), wild type (human) (UniProt O75533). The experiment is described as above.
Experiment [3] has as its target Flag-tagged TAL1 short form (TAL1s) (human) (UniProt P17542). Put plainly: co-IP; 293T cells transfected with plasmids expressing ETO2 and Flag-tagged TAL1 proteins; immunoprecipitation with Flag antibody, western blot.
Experiment [4] has as its target Flag-tagged full-length TAL1 (T-cell Acute Lymphocytic Leukemia Protein 1) (human) (UniProt P17542). The experiment is described as above.
The target in experiment [5] is Flag-tagged TAL1 short form (TAL1s), stable K562 line (human) (UniProt P17542). Put plainly: co-IP; K562 stable cell lines expressing Flag-tagged TAL1s or Flag-TAL1fl; immunoprecipitation with Flag antibody, ETO2 detected by anti-ETO2 antibody.
The target of experiment [6] is Flag-tagged full-length TAL1 (T-cell Acute Lymphocytic Leukemia Protein 1), stable K562 line (human) (UniProt P17542). The experiment is described as above.

These are yes or no findings as the source states them, for the method shown. In cells and extracts the contact can be indirect. Some results given as binding are weak or reduced against the parent protein; the word gives no strength.

B1: RBM15 (RNA Binding Motif Protein 15) in K562 cells (protein, UniProt Q96T37 1-977)
chain: MRTAGRDPVPRRSPRWRRAVPLCETSAGRRVTQLRGDDLRRPATMKGKERSPVKAKRSRGGEDSTSRGERSKKLGGSGGSNGSSSGKTDSGGGSRRSLHLDKSSSRGGSREYDTGGGSSSSRLHSYSSPSTKNSSGGGESRSSSRGGGGESRSSGAASSAPGGGDGAEYKTLKISELGSQLSDEAVEDGLFHEFKRFGDVSVKISHLSGSGSGDERVAFVNFRRPEDARAAKHARGRLVLYDRPLKIEAVYVSRRRSRSPLDKDTYPPSASVVGASVGGHRHPPGGGGGQRSLSPGGAALGYRDYRLQQLALGRLPPPPPPPLPRDLERERDYPFYERVRPAYSLEPRVGAGAGAAPFREVDEISPEDDQRANRTLFLGNLDITVTESDLRRAFDRFGVITEVDIKRPSRGQTSTYGFLKFENLDMSHRAKLAMSGKIIIRNPIKIGYGKATPTTRLWVGGLGPWVPLAALAREFDRFGTIRTIDYRKGDSWAYIQYESLDAAHAAWTHMRGFPLGGPDRRLRVDFADTEHRYQQQYLQPLPLTHYELVTDAFGHRAPDPLRGARDRTPPLLYRDRDRDLYPDSDWVPPPPPVRERSTRTAATSVPAYEPLDSLDRRRDGWSLDRDRGDRDLPSSRDQPRKRRLPEESGGRHLDRSPESDRPRKRHCAPSPDRSPELSSSRDRYNSDNDRSSRLLLERPSPIRDRRGSLEKSQGDKRDRKNSASAERDRKHRTTAPTEGKSPLKKEDRSDGSAPSTSTASSKLKSPSQKQDGGTAPVASASPKLCLAWQGMLLLKNSNFPSNMHLLQGDLQVASSLLVEGSTGGKVAQLKITQRLRLDQPKLDEVTRRIKVAGPNGYAILLAVPGSSDSRSSSSSAASDTATSTQRPLRNLVSYLKQKQAAGVISLPVGGNKDKENTGVLHAFPPCEFSQQFLDSPAKALAKSEEDYLVMIIVRGFGFQIGVRYENKKRENLALTLL
Take B1: the binding entry in experiment [1] and in experiment [2] was “binds” in each case.

B2: ETO2 (protein, UniProt O75081 1-653)
chain: MPASRLRDRAASSASGSTCGSMSQTHPVLESGLLASAGCSAPRGPRKGGPAPVDRKAKASAMPDSPAEVKTQPRSTPPSMPPPPPAASQGATRPPSFTPHTHREDGPATLPHGRFHGCLKWSMVCLLMNGSSHSPTAINGAPCTPNGFSNGPATSSTASLSTQHLPPACGARQLSKLKRFLTTLQQFGSDISPEIGERVRTLVLGLVNSTLTIEEFHSKLQEATNFPLRPFVIPFLKANLPLLQRELLHCARLAKQTPAQYLAQHEQLLLDASASSPIDSSELLLEVNENGKRRTPDRTKENGSDRDPLHPEHLSKRPCTLNPAQRYSPSNGPPQPTPPPHYRLEDIAMAHHFRDAYRHPDPRELRERHRPLVVPGSRQEEVIDHKLTEREWAEEWKHLNNLLNCIMDMVEKTRRSLTVLRRCQEADREELNHWARRYSDAEDTKKGPAPAAARPRSSSAGPEGPQLDVPREFLPRTLTGYVPEDIWRKAEEAVNEVKRQAMSELQKAVSDAERKAHELITTERAKMERALAEAKRQASEDALTVINQQEDSSESCWNCGRKASETCSGCNAARYCGSFCQHRDWEKHHHVCGQSLQGPTAVVADPVPGPPEAAHSLGPSLPVGAASPSEAGSAGPSRPGSPSPPGPLDTVPR
Regarding B2, the results for the binding result in experiment [3] and in experiment [4] were “no binding” and “binds”, respectively.

B3: ETO2 in K562 cells (protein, UniProt O75081 1-653)
chain: B2 chain
On to B3, for which the binding result is recorded as “no binding” in experiment [5] and “binds” in experiment [6].
